Assay results reported in the RNAGym collection of RNA variant scans (doi:10.7554/elife.90254).
The source gives no read counts; variants with many changes may rest on few reads.

B1: LINE1-mini (parent)
chain: GGCAGAGCUCAACACAGCGUGGCAAAGUGGCUGUGGCUAGACUGCC

Variants of: B1
Assay: self-cleavage, relative activity (ratio to wild type); higher = more cleavage; in vitro, sequencing; the parent is a self-cleaving ribozyme
Variant G7A G19A C23A has a self-cleavage of 0.06. G7A G21C C42A showed a self-cleavage of 0.07. G7A G19A G30A U34C showed a self-cleavage of 0.28. Variant G7C C10U C13A has a self-cleavage of 0.03. For G7C C10U C15U U20A G30U, the self-cleavage was 0.06. Variant G7C A41G C45U has a self-cleavage of 0.02. Variant G7C C8A A14C G22A has a self-cleavage of 0.1. G7C C13G G21A gave a self-cleavage of 0.1. G7C A26U U28C C37U G40C showed a self-cleavage of 0.06. Variant G7A G22A G33A has a self-cleavage of 0.1. G7A G22C C23A G29U gave a self-cleavage of 0.01. With A6U U9G C10U A39U the self-cleavage was 0.06. G7A G33A G36A showed a self-cleavage of 0.09. With G7A A11G C23A C31A the self-cleavage was 0.03. With G7C C10G G40A the self-cleavage was 0.02. G7A C8G A41C gave a self-cleavage of 0.08. Variant G7C A14U A16G has a self-cleavage of 0.11. G7C C15A C31G showed a self-cleavage of 0.05. For G7C C10G G17U C18U G19A G33C A39G, the self-cleavage was 0.03. G7A C8A C10A gave a self-cleavage of 0.02. G7C A24C C45U gave a self-cleavage of 0.03. In the case of G7A C8U G36A, the self-cleavage is reported as 0.22. For G7A C8G G17C U34C G36C, the self-cleavage was 0.04. Work on G7C A12G A25U G36C C37U yielded a self-cleavage of 0.01. Variant G7A C18A A26G U28C G44A has a self-cleavage of 0.06. G7C A16C A26C G33C A39U gave a self-cleavage of 1.21. Variant G7A C10U C18G G30C U38A has a self-cleavage of 0.01. In the case of G7A C10A A14G G35C G44C, the self-cleavage is reported as 0.02. Work on G7A C8U U9G C31U U32C G33A G44C C45G yielded a self-cleavage of 0.02. G7A C13A U28A C31G showed a self-cleavage of 0.19. In the case of G7A A16G C42U, the self-cleavage is reported as 0.09. For G7C C10A A12C A25C U34C, the self-cleavage was 0. Variant G7A A12U G22A A41G has a self-cleavage of 0.64. In the case of G7A G30A U34G U43A, the self-cleavage is reported as 0.09. With G7C C13G A41G U43A the self-cleavage was 0.03. G7A C8G G40U gave a self-cleavage of 0.14. In the case of G7C A25U G36C, the self-cleavage is reported as 0.14. Work on G7A C13G U34C yielded a self-cleavage of 0.23. Variant G7A C10A G17A A26G G33U U34A has a self-cleavage of 0.01. G7C C13U C18A gave a self-cleavage of 0.01. G7A C18G G30A gave a self-cleavage of 0.56. G7C G17U U43A showed a self-cleavage of 0.05. In the case of G7A G21U G35U, the self-cleavage is reported as 0.21. G7A A16G C18G A24G C45G showed a self-cleavage of 0.08. With G7C A11U A16U C18U A41U the self-cleavage was 0.02. A6U G33U U38C showed a self-cleavage of 0. G7C C8U C13A A16C C46G gave a self-cleavage of 0.26. With G7A A11C G19U A41C the self-cleavage was 0.01. G7A A11U A25U gave a self-cleavage of 0.01. With A6U U9A C13A G29U the self-cleavage was 0.19. G7C C31A U32G A41U showed a self-cleavage of 0.08. A6U U20C U34C C37U A39U showed a self-cleavage of 0.1. G7A G19A G27U A41C gave a self-cleavage of 0.27. With G7C C10G A24U A25G A39U the self-cleavage was 0. In the case of G7A C8G C10A A16U G17A, the self-cleavage is reported as 0.06. In the case of G7A C8U C46U, the self-cleavage is reported as 0.37. In the case of G7A C31A U34G C37G C42U, the self-cleavage is reported as 0. With G7C A16C G19U G21U U38A the self-cleavage was 0.04. For G7A C8U C13U G17U, the self-cleavage was 0.45. Work on G7A C31A G35C C37U yielded a self-cleavage of 0.01. Work on G7A U9C C10A G22U C31A yielded a self-cleavage of 0.01. Work on G7A A14U U20C yielded a self-cleavage of 1.95. Work on G7A C23G A41G yielded a self-cleavage of 0.24. G7C C15G A25U G27A G30U G36C gave a self-cleavage of 0.01. For A6U G21A C23A G35C U43C, the self-cleavage was 0.01. Variant A6U G35A C37A G40A has a self-cleavage of 0.12. G7C C18A C23A A26U G29C G33A showed a self-cleavage of 0.01. G7A C10G G27A gave a self-cleavage of 0.02. In the case of G7A A26C G33U, the self-cleavage is reported as 0.23. With G7A A26C G33A the self-cleavage was 0.09. Work on G7A C10U C18G G27U C45G yielded a self-cleavage of 0.06. With G7C C8U A12G U34G the self-cleavage was 0.01. G7A G22U G30U gave a self-cleavage of 0.07. G7A A14C U32C showed a self-cleavage of 0.07. Variant G7A C8G G19U A26C G29U has a self-cleavage of 0.03. For A6U G40A U43A, the self-cleavage was 0.1. With G7C G17U G33C the self-cleavage was 0.25. G7A C8G U9C C10U A11C G17A G19U showed a self-cleavage of 0.02. Variant G7A C13U G27A has a self-cleavage of 0.23. Work on A6U G30A A39C yielded a self-cleavage of 0.05. With G7C C8A A25G G30U C37U C45U the self-cleavage was 0.08. In the case of G7A C15A U28A, the self-cleavage is reported as 0.13. With G7A C10A A11C U28A G30U the self-cleavage was 0.01. In the case of G7A A24G C37U A41U, the self-cleavage is reported as 0.03. Work on G7C C10A C15G C31U U34C A41G yielded a self-cleavage of 0.01. For G7C C15A G30A, the self-cleavage was 0.12. G7C C15A G30C showed a self-cleavage of 0.05. G7A C10U A26U U32C U38G showed a self-cleavage of 0. In the case of G7C C8A C13U U20A A26U C31G A41C, the self-cleavage is reported as 0.22. For A6U G29U U32A, the self-cleavage was 0.11. For G7C G17A C37G U38G, the self-cleavage was 0.06. G7C G17U C23U G29A U32A G35C gave a self-cleavage of 0.19. Work on G7A G17A U20C G21U G29A G30C yielded a self-cleavage of 0.15. Work on G7A C37U G44U C46U yielded a self-cleavage of 0.07. In the case of G7A C15A G17A, the self-cleavage is reported as 0.11. For G7A C8U C10G G21U U38A, the self-cleavage was 0.02. G7A A12U G29U G40C showed a self-cleavage of 0.28. Work on G7A A14C C31A yielded a self-cleavage of 0.08. A6U G35U A39G C42U showed a self-cleavage of 0.07. Variant G7A C8G G17A has a self-cleavage of 0.04. With G7A G21A G29C G33U A41U the self-cleavage was 0.11. Variant A6U G33U U38C C42U G44A C46G has a self-cleavage of 0.05. In the case of G7A U9G G21U C23A, the self-cleavage is reported as 0.01. In the case of G7A G21U A25C, the self-cleavage is reported as 0.06. In the case of G7A C10A C15A G17A C18U C42A C45A, the self-cleavage is reported as 0.03. With G7C A14G G27C G29U G33A the self-cleavage was 0.02. In the case of G7C C23U A41C, the self-cleavage is reported as 0.07. G7C C23A G30A showed a self-cleavage of 0.32. Work on A6U G27C G35U G36U C46G yielded a self-cleavage of 0.71. G7C C10A C18A G19A C46A gave a self-cleavage of 0.02. Variant G7A C8A G21A G22C G40C has a self-cleavage of 0.12. With G7C A12G A39U the self-cleavage was 0.02. G7C C15U U20G U28G C37G G44C C45A C46G showed a self-cleavage of 0.01. G7C C13A G22U G30U G33A U43G gave a self-cleavage of 0.01. With A6U U9A C23U the self-cleavage was 0.2. G7A U20G C31G U43C G44A gave a self-cleavage of 0.04. Work on G7C G17U G21U G35A yielded a self-cleavage of 0.02. For A6U U9A A11U G19U C23A A26U U38A, the self-cleavage was 0. In the case of G7A U9G A12G, the self-cleavage is reported as 0.15. G7C A12U A24G gave a self-cleavage of 0.11. Variant G7C C8A G40A has a self-cleavage of 0.23. Variant G7A C8G C10A G40A has a self-cleavage of 0.07. Variant G7C A14G C15A U20C G21U G36C C42G has a self-cleavage of 0.02. Variant G7A A24U A25C has a self-cleavage of 0.14. G7C C31U G35C gave a self-cleavage of 0.07. Work on G7A C31G U32G C37G yielded a self-cleavage of 0.01. G7A A12C A41U C46A gave a self-cleavage of 0. G7A A14G C15U U32G gave a self-cleavage of 0.43. In the case of A6U U28C C46G, the self-cleavage is reported as 1.11. In the case of A6U G22A C45U, the self-cleavage is reported as 0.56. Variant G7C C13U A39U has a self-cleavage of 0.08. Work on G7A A12G G21A C42A yielded a self-cleavage of 0.12. A6U U9G A12U U28C G30U showed a self-cleavage of 0.03. In the case of A6U U9G G17A A26C, the self-cleavage is reported as 0.08. In the case of G7A C8A A14U G21A U34G A39U, the self-cleavage is reported as 0.23. G7A C15G G33A C45A showed a self-cleavage of 0.07. Variant G7A A12G G40C A41C has a self-cleavage of 0.01. G7A C10A G19A A26U A39U showed a self-cleavage of 0.02. A6U U28C C31U U38C gave a self-cleavage of 0.03. For G7C C15A A39G, the self-cleavage was 0.02. G7A U9G U34G A41C showed a self-cleavage of 0.04. Variant G7A G21C G33A G35A A39C has a self-cleavage of 0.23. Work on G7A C23U U34C yielded a self-cleavage of 0.29. G7C C8A G40A C45U gave a self-cleavage of 0.05. G7A A14U G27A gave a self-cleavage of 0.21. Work on G7C A12U C15A G21C A24C yielded a self-cleavage of 0.04. Work on G7A G22U A41U yielded a self-cleavage of 0.13. G7A A14U A26C G33U U38C G44A gave a self-cleavage of 0.03. G7A A11C G19U G33A G35C U43A showed a self-cleavage of 0.06. Variant A6U G33C U38A has a self-cleavage of 0.03. Work on G7C A11G C13A yielded a self-cleavage of 0.03. G7A A12G G27A U34G G36A U38C C45U showed a self-cleavage of 0.22. Variant G7A G29A C45A has a self-cleavage of 0.01. For G7A A24U C31U, the self-cleavage was 0.03. G7A C15A U20G G29C C37G U38C showed a self-cleavage of 0.2. Work on G7C C13G C23A G27A yielded a self-cleavage of 0.01. A6U G40C U43G gave a self-cleavage of 0.09. Work on A6U G22A U28A yielded a self-cleavage of 0.22. In the case of G7A A14U G29C, the self-cleavage is reported as 0.3. In the case of G7A C10A A24U G40C, the self-cleavage is reported as 0.02. For G7A U9G U32C A41G, the self-cleavage was 0.02. Work on G7A A14G G29A yielded a self-cleavage of 0.19. With G7A A14U C15A G21U G30U G36U the self-cleavage was 0.03. In the case of G7A A24G A26U C31U C37A, the self-cleavage is reported as 0.11. Work on G7C A24G C37U A41C yielded a self-cleavage of 0.03. Variant G7C A39C C45U has a self-cleavage of 0.04. In the case of G7C C15U G27U, the self-cleavage is reported as 0.05.
